The values that follow come from the supplement of paper PMC6660600, “Odorant Inhibition in Mosquito Olfaction” (iScience, 2019).

Where a name gives a salt, the structure may show the parent alone. Some of the results follow. Many values rest on one well or one pass, so single values are uncertain.

This experiment deals with CquiOR32-CquiOrco. In words: current response class (signed ordinal: positive = inward/excitatory, negative = outward/inhibitory) (ordinal score (-3..3)); higher = stronger inward (excitatory) current. The following applies: 1 mM; holding potential (mV): -80. As for the experimental part:
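Xenopus oocytes co-expressing Culex quinquefasciatus CquiOR32 with CquiOrco were challenged by two-electrode voltage clamp (holding -80 mV) with a panel of about 200 odorants at 1 mM source dose (2 s stimulus). The response was scored qualitatively: + to +++ for weak to strong inward currents, x to xxx for weak to strong outward (inhibitory, reverse) currents, +/- and x/- for very weak currents (S/N 2-5), and - for no response. Scale: negative = stronger reverse/inhibitory current.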
For the molecule `C=CC(CCCCC)OC(C)=O` (stereo not given) [1-octen-3-yl acetate], the current response class is inactive: 0.

For the molecule `CCCCC1CCC(=O)O1` (stereo not given) [γ-octalactone], the current response class was active: 2. Consider `CCCCCCCC(C)O` (stereo not given) [2-nonanol], for which the current response class was inactive: 0. The same measure for `C/C=C(\C)C=O` [(E)-2-methyl-2-butenal]: active: 2; for `CCCCCCCCCC=O` [decanal]: inactive: 0. `CC12CCC(CC1)C(C)(C)O2` [eucalyptol]: the current response class is active: -3. For the molecule `CC(C)=CCC[C@@H](C)CC=O` (racemic) [(±)-citronellal], the current response class is inactive: 0.

Regarding `CCC(C)C(=O)OCCC(C)C` (stereo not given) [3-methylbutyl 2-methylbutanoate], the current response class is inactive: 0. On to `CC(=O)OC1CC(C)CCC1C(C)C` (stereo not given) [menthyl acetate], for which the current response class was inactive: 0. In the case of `CCN(CC)C(=O)c1cccc(C)c1` [N,N-Diethyl-m-toluamide (DEET)], the current response class is active: -2. To `Oc1ccccc1` [phenol] belongs inactive: 0; to `CCCCCCCCCCCCCC(=O)OC(C)C` [isopropyl myristate], inactive: 0; to `CCC(C)COC(=O)C(C)CC` (stereo not given) [2-methylbutyl 2-methylbutanoate], inactive: 0. The same measure for `CC(C=O)Cc1ccc(C(C)(C)C)cc1` (stereo not given) [lilial]: inactive: 0. As for `CC(=O)c1cc(C(C)(C)C)c(O)c(C(C)(C)C)c1` [3,5-di-tert-butyl-4-hydroxyacetophenone], the current response class was inactive: 0. With `CCCCCCCCC(=O)O` [nonanoic acid], the current response class was inactive: 0. For the molecule `CCCCCC(O)CC` (stereo not given) [3-octanol], the current response class is inactive: 0. Consider `CC(C)[C@@H]1CC[C@@H](C)C[C@H]1O` [L-menthol], for which the current response class was active: -1. The same measure for `CCCC(O)CC(=O)OCC` (stereo not given) [ethyl 3-hydroxyhexanoate]: inactive: 0; for `CCCCCCCCC1CCC(=O)O1` (stereo not given) [γ-dodecalactone]: inactive: 0; for `CCC(O)CC` [3-pentanol]: active: 1. The same measure for `CCCC(C)O` (stereo not given) [2-pentanol]: inactive: 0; for `O=COCc1ccccc1` [benzyl formate]: inactive: 0; for `CCCCCC/C=C/C=O` [(E)-2-nonenal]: inactive: 0. In the case of `C=CC(O)CCC` (stereo not given) [1-hexen-3-ol], the current response class was active: 1. As for `CCCCC/C=C\C=C\C(=O)OCC` [ethyl (2E,4Z)-decadienoate], the current response class was active: 1. For the molecule `CC(CC=O)CCCC(C)(C)O` (stereo not given) [7-hydroxcitronellal], the current response class was inactive: 0.

Turning to `CCCCCC(=O)OCC` [ethyl hexanoate], the current response class is inactive: 0. `CC(C)=CCC/C(C)=C/COC(=O)CC(C)C` [geranyl isovalerate]: the current response class is active: -1. As to `CCCCCCCOC(C)=O` [heptyl acetate], the current response class is inactive: 0. As for `CC(C=O)=Cc1ccccc1` [α-methylcinnamaldehyde], the current response class was active: 1.

For the molecule `C=CC(C)(CCC=C(C)C)OC(C)=O` (stereo not given) [linalyl acetate], the current response class was active: -1. For `CCC(=O)OC` [methyl propionate], the current response class was inactive: 0. Consider `CCCCCCCCO` [1-octanol], for which the current response class was inactive: 0. In the case of `CCCOC(C)=O` [propyl acetate], the current response class is inactive: 0. Consider `CCC(=O)Oc1ccccc1` [phenyl propanoate], for which the current response class was inactive: 0. The same measure for `CC(C)=CCC/C(C)=C/CC/C(C)=C/CO` [(E,E)-farnesol]: inactive: 0; for `CC#CCCO` [3-pentyn-1-ol]: inactive: 0. For `CCCCOCCO` [2-butoxyethanol], the current response class is active: 1. For `CCCCCO` [1-pentanol], the current response class was inactive: 0.
